According to PubChem BioAssay AID504339 (National Center for Advancing Translational Sciences (NCATS), 2011):
About 17,000 (4.4%) of roughly 390,000 compounds were called active. Inconclusive results, whose numbers are uncertain, are shown with a selection of clear calls. Calls follow the shape of the dose curve; as a rule, active = well fitted inhibition curve with a large enough effect; inconclusive = small, poorly fitted or top-dose-only effect; inactive = no such curve, though single readings can be large or run the other way. A potency beside an inconclusive call is a rough fit, not a confirmed value.
% is scaled to controls: 0 for no effect and ±100 for the full control effect; potency is read from the fitted curve at half-maximal effect; tags tell the direction and shape of the fitted curve.
Also: nearly all actives have a fitted effect of over 50% in size.

Each compound was assayed against Lysine-specific demethylase 4A (Homo sapiens) (UniProt O75164) (assay: qHTS Assay for Inhibitors of JMJD2A-Tudor Domain). Settings: AlphaScreen JMJD2A-Tudor / H3K4me3 peptide binding; activity change, negative = inhibition: at 114 µM (top of the series).
Sequence of UniProt O75164 (O75164 whole entry, looked up, the tested form may be a part): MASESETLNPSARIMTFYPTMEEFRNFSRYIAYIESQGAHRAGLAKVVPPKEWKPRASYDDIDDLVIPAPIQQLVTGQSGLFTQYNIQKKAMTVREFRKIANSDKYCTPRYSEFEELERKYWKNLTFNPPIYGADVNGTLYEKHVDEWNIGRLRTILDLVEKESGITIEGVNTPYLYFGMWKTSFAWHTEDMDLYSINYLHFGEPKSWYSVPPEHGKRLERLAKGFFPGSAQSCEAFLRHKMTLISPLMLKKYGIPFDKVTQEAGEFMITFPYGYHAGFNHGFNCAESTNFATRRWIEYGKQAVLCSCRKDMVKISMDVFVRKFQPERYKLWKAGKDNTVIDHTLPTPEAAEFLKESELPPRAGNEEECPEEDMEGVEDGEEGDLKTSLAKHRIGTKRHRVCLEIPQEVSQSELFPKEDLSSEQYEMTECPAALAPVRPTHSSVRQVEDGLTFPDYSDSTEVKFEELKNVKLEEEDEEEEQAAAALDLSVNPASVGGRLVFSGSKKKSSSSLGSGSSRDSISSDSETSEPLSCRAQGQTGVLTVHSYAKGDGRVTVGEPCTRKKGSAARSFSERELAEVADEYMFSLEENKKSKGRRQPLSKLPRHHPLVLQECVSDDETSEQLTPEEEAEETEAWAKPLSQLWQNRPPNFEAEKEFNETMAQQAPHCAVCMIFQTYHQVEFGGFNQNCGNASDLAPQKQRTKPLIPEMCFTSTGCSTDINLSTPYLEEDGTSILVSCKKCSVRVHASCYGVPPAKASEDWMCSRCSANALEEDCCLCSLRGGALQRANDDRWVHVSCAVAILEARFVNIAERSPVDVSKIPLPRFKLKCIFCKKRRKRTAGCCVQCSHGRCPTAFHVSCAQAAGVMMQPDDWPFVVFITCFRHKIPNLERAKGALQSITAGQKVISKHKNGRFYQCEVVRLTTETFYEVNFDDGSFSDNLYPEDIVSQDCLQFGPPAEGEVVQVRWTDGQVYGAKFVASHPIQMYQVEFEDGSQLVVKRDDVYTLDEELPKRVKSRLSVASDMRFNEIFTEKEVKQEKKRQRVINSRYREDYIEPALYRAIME
With `Cc1cccc(CSc2nc3c(c(-c4cccs4)c2C#N)CN(C)CC3)c1` the Potency was inconclusive: 79.4 µM [inhibitor, partial curve]. In the case of `COc1ccc(NC(=S)NC(NC(=O)CCl)C(Cl)(Cl)Cl)c([N+](=O)[O-])c1` (stereo unspecified), the Potency is reported as inconclusive: 56.2 µM [inhibitor, partial curve]. In the case of `CNc1ccc(/C=C/C(=O)c2ccc(C)cc2)cc1[N+](=O)[O-]`, the Potency is reported as inconclusive: 7.94 µM [inhibitor, full curve]. With `CN(C)c1ccc(/C=N/N=C/c2ccccc2O)cc1` the Potency was “inactive”. With `Cc1sc2c(c1C)C(=O)NC(c1ccccc1F)N2` (stereo unspecified) the Potency was inconclusive: 56.2 µM [inhibitor, partial curve]. `Nc1cc(C(=O)O)c(N)c2c1C(=O)c1ccccc1C2=O` was tested, and the Potency was inconclusive: 3.55 µM [inhibitor, partial curve]. With `Cc1c2cnn(CC(=O)NCCCN3CCCCC3C)c(=O)c2c(C)n1Cc1ccccc1` (stereo unspecified) the Potency was inconclusive: 50.1 µM [inhibitor, partial curve]. In the case of `O=C(c1sc2ccccc2c1Cl)N(Cc1ccco1)C1CCS(=O)(=O)C1` (stereo unspecified), the Potency is reported as inconclusive: 44.7 µM [inhibitor, partial curve]. For `CCOC(=O)c1ccccc1NC(=O)c1ccc2nccnc2c1`, the Potency was active: 50.1 µM. For `O=C(Cn1cnc2c(nnn2-c2ccccc2)c1=O)NCc1ccc(F)cc1`, the Potency was inconclusive: 20 µM [inhibitor, full curve]. `Cc1ccc(NC(=O)CNCC2CCCCC2)cc1S(=O)(=O)N(C)C` was tested, and the Potency was active: 22.4 µM. In the case of `COC(=O)CCC(=O)OC1(C)C(=O)C=C2C=C(C3CC3)N(c3ccccc3)C=C2C1=O` (stereo unspecified), the Potency is reported as inconclusive: 50.1 µM [inhibitor, partial curve, poor fit]. `CCN(Cc1ccccc1)C(=O)Cn1c(=O)oc2cc(S(=O)(=O)N3CCCCCC3)ccc21` was tested, and the Potency was “inactive”. `Cc1ccc(C)c(N2CCN(C(c3ccc(F)cc3)c3nnc(-c4ccccc4)o3)CC2)c1` (stereo unspecified) was tested, and the Potency was inconclusive: 79.4 µM [inhibitor, partial curve]. `Cc1ccc2nc(NC(=O)CSc3nccn3Cc3ccccc3)sc2c1` was tested, and the Potency was inconclusive: 28.2 µM [inhibitor, full curve]. `O=C(c1ccc(Cl)c([N+](=O)[O-])c1)N1CCN(Cc2ccc3c(c2)OCO3)CC1` was tested, and the Potency was “inactive”. In the case of `COc1ccccc1/C(C)=N/NC(=O)c1nnn(-c2nonc2N)c1C(C)C`, the Potency is reported as active: 20 µM. For `CCN(CC)c1ccc(S(=O)(=O)Nc2cc(Cl)ccc2Cl)cc1NC(=S)NC(=O)C1CCCC1`, the Potency was inconclusive: 28.2 µM [inhibitor, single point]. In the case of `Cc1ccccc1NC(=O)CC1SC(=O)N(c2ccccc2)C1=O` (stereo unspecified), the activity change, negative = inhibition is reported as inactive: -14.5% [at 11.4 µM]. `Cc1n[nH]c(=S)n(/N=C/c2cccc([N+](=O)[O-])c2)c1=O` was tested, and the Potency was inconclusive: 89.1 µM [inhibitor, single point]. In the case of `CCOC(=O)c1cnc2ccccc2c1Nc1ccc(N2CCOCC2)cc1`, the Potency is reported as inconclusive: 56.2 µM [inhibitor, single point]. With `CCN(CC)CCOc1ccc2c(c1)C(=NNC(=O)c1ccccn1)c1cc(OCCN(CC)CC)ccc1-2` the Potency was active: 25.1 µM. `CSc1ccc(CN2CCc3c([nH]c4ccccc34)C2)cc1` was tested, and the Potency was active: 3.16 µM. In the case of `CCOC(=O)CNC=C(C(=O)OCC)C(=O)OCC`, the Potency is reported as “inactive”. For `COc1cccc(OC)c1OCc1cc(C2C3CCCC=C3C(C#N)=C(N)C2(C#N)C#N)c(C)cc1C` (stereo unspecified), the Potency was inconclusive: 56.2 µM [inhibitor, partial curve]. For `Cc1cccc(C)c1N1CCN(C(=O)N2CCOCC2)CC1`, the Potency was inconclusive: 17.8 µM [inhibitor, partial curve]. `Cc1ccc(NC(=S)N(N)CCO)cc1` was tested, and the Potency was inconclusive: 22.4 µM [inhibitor, full curve, poor fit]. With `CCCCn1c(N)c(N(CCC(C)C)C(=O)C2CC(=O)N(c3cccc(SC)c3)C2)c(=O)[nH]c1=O` (stereo unspecified) the Potency was “inactive”. For `Cc1ccc(C)c(NC(=O)CSc2ccc(-c3ccco3)nn2)c1`, the Potency was “inactive”. For `O=C(Cn1cc(C(F)(F)F)ccc1=O)OCC(=O)c1ccc[nH]1`, the Potency was “inactive”. In the case of `Cn1nc(-c2ccc(Cl)cc2)c2cc(C(=O)N3CCOCC3)sc21`, the Potency is reported as “inactive”. `O=C(NNS(=O)(=O)c1ccccc1)c1cc2cc3ccccc3nc2s1` was tested, and the Potency was inconclusive: 7.08 µM [inhibitor, full curve]. With `CC1CCc2nc(NC(=O)c3ccc(N4C(=O)CCC4=O)cc3)sc2C1` (stereo unspecified) the Potency was “inactive”. For `COc1ccc(NC(=S)/N=C(\N)Nc2nc(C)c3ccccc3n2)cc1`, the Potency was inconclusive: 15.8 µM [inhibitor, full curve]. For `CN(Cc1cccc(F)c1)C(=O)CSc1nnc(C2CC2)n1C1CC1`, the Potency was “inactive”. With `Cc1ccc(C(=O)NCC(=O)OC(C)C(=O)Nc2ccc(N(C)C)cc2)cc1C` (stereo unspecified) the Potency was inconclusive: 44.7 µM [inhibitor, partial curve]. For `CC1=C(C(=O)OC(C)C)C(c2ccc(N(C)C)cc2)C2=C(CC(C)(C)CC2=O)N1` (stereo unspecified), the Potency was inconclusive: 35.5 µM [inhibitor, partial curve]. With `COC(=O)c1cccc(C23CC4(C2)[C@H](CN(C)[C@@H]4c2ccccc2)C3c2ccc(C(F)(F)F)cc2)c1` (stereo partly specified) the Potency was inconclusive: 31.6 µM [inhibitor, partial curve]. In the case of `CC(OC(=O)CCc1nc2ccccc2c(=O)[nH]1)C(=O)c1ccc(C(C)(C)C)cc1` (stereo unspecified), the Potency is reported as “inactive”. For `CCN(CC)CCSc1nnc2c3ccccc3n(CCc3ccccc3)c2n1`, the Potency was inconclusive: 63.1 µM [inhibitor, partial curve, poor fit]. For `O=c1[nH]c2ccc(NCc3ccccc3F)cc2[nH]1`, the Potency was inconclusive: 56.2 µM [inhibitor, partial curve, poor fit]. In the case of `COC(=O)c1cc(NC(=O)c2ccc(C)cc2)c(=O)oc1C`, the Potency is reported as inconclusive: 3.98 µM [inhibitor, single point]. With `C/C=C/C=N\NC(=O)c1ccncc1` the Potency was inconclusive: 22.4 µM [inhibitor, full curve]. With `Cc1ccc(CS(=O)(=O)CC(C)(O)c2ccc(Cl)cc2)cc1` (stereo unspecified) the Potency was “inactive”. `CSC1=NSC2=NC(=O)/C(=C/c3coc4ccc(O)cc4c3=O)C(=N)N12` was tested, and the Potency was inconclusive: 70.8 µM [inhibitor, partial curve, poor fit]. In the case of `O=C1S/C(=C\C=C\c2ccco2)C(=O)N1c1ccc(O)cc1`, the Potency is reported as inconclusive: 25.1 µM [inhibitor, partial curve]. With `Oc1ccc(C[C@H]2CNCCN2CCC23CC4CC(CC(C4)C2)C3)cc1` the Potency was inconclusive: 63.1 µM [inhibitor, partial curve]. `COc1ccc(OC)c2c(=O)cc(C(=O)O)[nH]c12` was tested, and the Potency was active: 79.4 µM. With `COCCCNc1oc(COc2ccc(Cl)cc2Cl)nc1C#N` the Potency was inconclusive: 56.2 µM [inhibitor, partial curve, poor fit]. In the case of `N#C/C(=N\Nc1ccc(Cl)c(Cl)c1)C(=O)C1CC1`, the Potency is reported as active: 50.1 µM. For `COc1cccc(CN2CCNC(=O)C2CC(=O)NCCn2cccn2)c1OC` (stereo unspecified), the Potency was inconclusive: 89.1 µM [inhibitor, partial curve]. For `CCn1c(NCc2ccc(N(C)C)cc2)nc2ccccc21`, the Potency was inconclusive: 44.7 µM [inhibitor, partial curve]. In the case of `CN(C)c1ccc(C(=O)OCc2ccccc2)cc1`, the activity change, negative = inhibition is reported as inactive: -6.11% [at 11.4 µM]. For `O=C(CCNC(=O)c1ccc(Br)cc1)Nc1ccc(S(=O)(=O)Nc2ncccn2)cc1`, the Potency was “inactive”. In the case of `COc1ccc(C(=O)Oc2cc(C)c(CN3CCOCC3)cc2C)cc1OC`, the Potency is reported as “inactive”. `CCOC(=O)C(C)Sc1nc2c(c(=O)[nH]c(=O)n2C)n1C/C=C(/C)Cl` (stereo unspecified) was tested, and the Potency was inconclusive: 79.4 µM [inhibitor, partial curve]. In the case of `O=C(C[n+]1cccc(CNC(=O)c2ccc(OC(F)F)cc2)c1)Nc1cc(C(F)(F)F)ccc1Cl`, the Potency is reported as inconclusive: 39.8 µM [inhibitor, single point]. In the case of `Cc1noc(C)c1NC(=O)N(C)C[C@@H]1Oc2c(NC(=O)c3ccncc3)cccc2C(=O)N([C@H](C)CO)C[C@@H]1C`, the Potency is reported as active: 35.5 µM. With `Cc1ccc(NC(=O)C2CCCN(S(=O)(=O)c3ccc(F)cc3)C2)cc1` (stereo unspecified) the Potency was “inactive”. With `NC(=O)c1ccc(-n2nnnc2SCC(=O)c2ccc(O)c(O)c2)cc1` the Potency was inconclusive: 4.47 µM [inhibitor, full curve]. For `Oc1ccc(N=Nc2ccccc2C(F)(F)F)c2cccnc12`, the Potency was active: 10 µM. In the case of `CCC(C(=O)O)n1c(C(F)(F)F)nc2ccccc21` (stereo unspecified), the Potency is reported as “inactive”. `S=C(c1cn(Cc2ccccc2)c2ccccc12)N1CCOCC1` was tested, and the Potency was inconclusive: 56.2 µM [inhibitor, partial curve]. For `COc1ccc(CC(=O)Nc2ccc(-c3cn4cccc(C)c4n3)cc2)cc1OC`, the Potency was inconclusive: 79.4 µM [inhibitor, partial curve]. `COC(=O)Nc1ccc(OCc2ccccc2)cc1` was tested, and the Potency was “inactive”. In the case of `Cc1cccc(NC(=S)NC2CC3CCCC(C2)N3Cc2cccs2)c1` (stereo unspecified), the Potency is reported as inconclusive: 56.2 µM [inhibitor, partial curve]. In the case of `O=C(NN=C1C2CC3CC(C2)CC1C3)c1ccncc1`, the Potency is reported as inconclusive: 39.8 µM [inhibitor, single point]. `Cc1ccc2nc(N(CCCN(C)C)C(=O)CCc3ccccc3)sc2c1` was tested, and the Potency was “inactive”. In the case of `COc1cc(C(=O)O/N=C2\C=CC(=O)C(C)=C2)cc(OC)c1OC`, the Potency is reported as “inactive”. With `CCOC(=O)CCCNc1ccc([N+](=O)[O-])cc1[N+](=O)[O-]` the Potency was “inactive”. With `CCOC(=O)c1cnc2nc(COc3ccccc3)[nH]n2c1=O` the Potency was inconclusive: 100 µM [inhibitor, partial curve].
